# Test results published in the supplement of paper PMC8728848.
# This is one part of the list.
# B1: GSL-I (Griffonia simplicifolia) (protein)
# chain: FNLPNFWSDVKDNIIFQGDANTTAGTLQLCKTNQYGNPLQYRAGRALYSDPVQLWDNKTGSVASFYTEFTFFLKITGDGPADGLAFFLAPPDSDVKDAGAYLGLFNKSTATQPSKNQVVAVEFDTWKNTDFPEPSYRHIGINVNSIVSVATKRWEDSDIFSGKIATARISYDGSAKILTVVLSYPDGADYILSHSVDLSKNLPNPIRVGISASTGANQFLTVYVLSWRFSSALQSTSVNAAMGPEIIRTVV
# Experiments:
# Assay in all cases: glycan array binding signal (z-score within array); higher = stronger binding
# Conditions in all cases: glycan notation: IUPAC condensed, linker removed
# [1] = molecular target: Fuc(a1-2)Gal(b1-4)GlcNAc(b1-3)Gal(b1-4)GlcNAc(b1-2)Man(a1-3)[Fuc(a1-2)Gal(b1-4)GlcNAc(b1-3)Gal(b1-4)GlcNAc(b1-2)Man(a1-6)]Man(b1-4)GlcNAc(b1-4)GlcNAc
# Outline: (§1)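 Negative Z-scores can be read as non-binding. The Z-score is calculated within each array and then averaged across arrays of one protein sequence at different concentrations or buffers and across linkers. Arrays, 3228 in all, were curated from the Consortium for Functional Glycomics database and kept only where the protein sequence was available.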
# [2] = molecular target: Fuc(a1-2)Gal(b1-4)GlcNAc(b1-3)Gal(b1-4)GlcNAc(b1-3)Gal(b1-4)GlcNAc
# Outline: as §1
# [3] = molecular target: Fuc(a1-2)Gal(b1-4)GlcNAc(b1-3)GalNAc
# Outline: as §1
# [4] = molecular target: Fuc(a1-2)Gal(b1-4)GlcNAc(b1-3)[Fuc(a1-2)Gal(b1-4)GlcNAc(b1-6)]GalNAc
# Outline: as §1
# [5] = molecular target: Fuc(a1-2)Gal(b1-4)GlcNAc(b1-3)[Fuc(a1-3)[Gal(b1-4)]GlcNAc(b1-6)]Gal(b1-4)Glc
# Outline: as §1
# [6] = molecular target: Fuc(a1-2)Gal(b1-4)GlcNAc(b1-6)GalNAc
# Outline: as §1
# [7] = molecular target: Fuc(a1-2)Gal(b1-4)GlcNAc6S
# Outline: as §1
# [8] = molecular target: Fuc(a1-2)Gal(b1-4)[Fuc(a1-3)]GlcNAc
# Outline: as §1
# [9] = molecular target: Fuc(a1-2)Gal(b1-4)[Fuc(a1-3)]GlcNAc(b1-2)Man(a1-3)[Fuc(a1-2)Gal(b1-4)[Fuc(a1-3)]GlcNAc(b1-2)Man(a1-6)]Man(b1-4)GlcNAc(b1-4)[Fuc(a1-6)]GlcNAc
# Outline: as §1
# [10] = molecular target: Fuc(a1-2)Gal(b1-4)[Fuc(a1-3)]GlcNAc(b1-2)[Fuc(a1-2)Gal(b1-4)[Fuc(a1-3)]GlcNAc(b1-4)]Man(a1-3)[Fuc(a1-2)Gal(b1-4)[Fuc(a1-3)]GlcNAc(b1-2)Man(a1-6)]Man(b1-4)GlcNAc(b1-4)GlcNAc
# Outline: as §1
# [11] = molecular target: Fuc(a1-2)Gal(b1-4)[Fuc(a1-3)]GlcNAc(b1-3)Gal(b1-4)[Fuc(a1-3)]GlcNAc
# Outline: as §1
# [12] = molecular target: Fuc(a1-2)Gal(b1-4)[Fuc(a1-3)]GlcNAc(b1-3)Gal(b1-4)[Fuc(a1-3)]GlcNAc(b1-3)Gal(b1-4)[Fuc(a1-3)]GlcNAc
# Outline: as §1
# [13] = molecular target: Fuc(a1-2)Gal(b1-4)[Fuc(a1-3)]GlcNAc(b1-3)GalNAc
# Outline: as §1
# [14] = molecular target: Fuc(a1-2)Gal(b1-4)[Fuc(a1-3)]GlcNAc(b1-3)[Neu5Ac(a2-6)Gal(b1-4)GlcNAc(b1-6)]Gal(b1-4)Glc
# Outline: as §1
# [15] = molecular target: Fuc(a1-2)Gal3S(b1-4)GlcNAc
# Outline: as §1
# [16] = molecular target: Fuc(a1-2)Gal6S(b1-3)GlcNAc
# Outline: as §1
# [17] = molecular target: Fuc(a1-2)Gal6S(b1-3)GlcNAc6S
# Outline: as §1
# Fuc(a1-2)Gal6S(b1-4)Glc = molecular target: Fuc(a1-2)Gal6S(b1-4)Glc
# Outline: as §1
# [18] = molecular target: Fuc(a1-2)Gal6S(b1-4)Glc6S
# Outline: as §1
# Fuc(a1-2)GlcNAc = molecular target: Fuc(a1-2)GlcNAc
# Outline: as §1
# Fuc(a1-2)[Gal(a1-3)]Gal = molecular target: Fuc(a1-2)[Gal(a1-3)]Gal
# Outline: as §1
# [19] = molecular target: Fuc(a1-2)[Gal(a1-3)]Gal(b1-3)GalNAc
# Outline: as §1
# [20] = molecular target: Fuc(a1-2)[Gal(a1-3)]Gal(b1-3)GalNAc(b1-3)Gal(a1-4)Gal(b1-4)Glc
# Outline: as §1
# [21] = molecular target: Fuc(a1-2)[Gal(a1-3)]Gal(b1-3)GlcNAc
# Outline: as §1
# [22] = molecular target: Fuc(a1-2)[Gal(a1-3)]Gal(b1-3)GlcNAc(b1-2)Man(a1-3)[Fuc(a1-2)[Gal(a1-3)]Gal(b1-3)GlcNAc(b1-2)Man(a1-6)]Man(b1-4)GlcNAc(b1-4)GlcNAc
# Outline: as §1
# [23] = molecular target: Fuc(a1-2)[Gal(a1-3)]Gal(b1-3)GlcNAc(b1-2)Man(a1-3)[Fuc(a1-2)[Gal(a1-3)]Gal(b1-3)GlcNAc(b1-2)Man(a1-6)]Man(b1-4)GlcNAc(b1-4)[Fuc(a1-6)]GlcNAc
# Outline: as §1
# [24] = molecular target: Fuc(a1-2)[Gal(a1-3)]Gal(b1-3)GlcNAc(b1-3)GalNAc
# Outline: as §1
# [25] = molecular target: Fuc(a1-2)[Gal(a1-3)]Gal(b1-3)GlcNAc(b1-6)GalNAc
# Outline: as §1
# [26] = molecular target: Fuc(a1-2)[Gal(a1-3)]Gal(b1-4)Glc
# Outline: as §1
# [27] = molecular target: Fuc(a1-2)[Gal(a1-3)]Gal(b1-4)GlcNAc
# Outline: as §1
binder,measurement,setting,value
B1,glycan array binding signal (z-score),[1],-0.037
same,glycan array binding signal (z-score),[2],-0.239
same,glycan array binding signal (z-score),[3],-0.179
same,glycan array binding signal (z-score),[4],0.044
same,glycan array binding signal (z-score),[5],-0.164
same,glycan array binding signal (z-score),[6],-0.21
same,glycan array binding signal (z-score),[7],-0.157
same,glycan array binding signal (z-score),[8],0.006
same,glycan array binding signal (z-score),[9],-0.155
same,glycan array binding signal (z-score),[10],-0.155
same,glycan array binding signal (z-score),[11],-0.002
same,glycan array binding signal (z-score),[12],0.044
same,glycan array binding signal (z-score),[13],0.177
same,glycan array binding signal (z-score),[14],-0.212
same,glycan array binding signal (z-score),[15],-0.091
same,glycan array binding signal (z-score),[16],-0.291
same,glycan array binding signal (z-score),[17],-0.176
same,glycan array binding signal (z-score),Fuc(a1-2)Gal6S(b1-4)Glc,-0.208
same,glycan array binding signal (z-score),[18],-0.216
same,glycan array binding signal (z-score),Fuc(a1-2)GlcNAc,-0.3
same,glycan array binding signal (z-score),Fuc(a1-2)[Gal(a1-3)]Gal,0.172
same,glycan array binding signal (z-score),[19],-0.076
same,glycan array binding signal (z-score),[20],-0.191
same,glycan array binding signal (z-score),[21],0.063
same,glycan array binding signal (z-score),[22],0.039
same,glycan array binding signal (z-score),[23],-0.181
same,glycan array binding signal (z-score),[24],-0.134
same,glycan array binding signal (z-score),[25],-0.281
same,glycan array binding signal (z-score),[26],-0.099
same,glycan array binding signal (z-score),[27],0.085
